# Data reported in the supplement of paper PMC10037445.
# Whole data set: some 2,900 compounds, median “IRF Lucia reporter activity, fold change vs agonist alone” near 0.9, cut for the highest 2% near 2.8. The list shows a part of the results.
# Key:
# RAW-Dual [1] = test: IRF Lucia reporter activity, fold change vs agonist alone; cytotoxicity flag (confluency mask): not cytotoxic; higher = enhanced IRF activity
# In short: (§1)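 Library stock was pin-tooled at 50 nL into 384-well plates of RAW-Dual macrophages (50,000 cells/well, DMEM), followed 1 h later by a PRR agonist, and the cells were kept at 37 °C, 5% CO2. Supernatant collected after 20 hours was read for IRF by QuantiLuc luminescence and for NF-κB by QuantiBlue absorbance at 620 nm. Reporter activity is fold change over agonist-alone wells, and a well counted as cytotoxic when its IncuCyte confluency was below 70% of agonist controls in both mask sets.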
# RAW-Dual [2] = test: IRF Lucia reporter activity, fold change vs agonist alone; higher = enhanced IRF activity; conditions: cytotoxicity flag (confluency mask): not cytotoxic, agonist: MPLA (TLR4) […]
# In short: as §1
# [3] = agonist: 3'3'-cGAMP (STING) 10 ug/mL
# [4] = library stock concentration (final ~1000-fold dilution): 10 mM
smiles,measurement,setting,value
c1cc(-c2cnn3cc(-c4ccc(OCCN5CCCCC5)cc4)cnc23)ccn1 (library stock concentration (final ~1000-fold dilution): 2 mM),IRF Lucia reporter activity,RAW-Dual [1]; [3],0.606
same,IRF Lucia reporter activity,RAW-Dual [1]; agonist: LPS (TLR4) 0.1 ug/mL,0.503
O=C1[C@H](CC[C@H](O)c2ccc(F)cc2)[C@@H](c2ccc(O)cc2)N1c1ccc(F)cc1 (library stock concentration (final ~1000-fold dilution): 10 mM),IRF Lucia reporter activity,RAW-Dual [1]; [3],0.917
same,IRF Lucia reporter activity,RAW-Dual [1]; agonist: LPS (TLR4) 0.1 ug/mL,1.34
CC1COCCN1c1cc(C2(S(C)(=O)=O)CC2)nc(-c2cccc3[nH]ccc23)n1 (stereo unspecified) (library stock concentration (final ~1000-fold dilution): 10 mM),IRF Lucia reporter activity,RAW-Dual [1]; [3],0.263
same,IRF Lucia reporter activity,RAW-Dual [1]; agonist: LPS (TLR4) 0.1 ug/mL,0.624
CC1COCCN1c1cc(C2(S(C)(=O)=O)CC2)nc(-c2cccc3[nH]ccc23)n1 (stereo unspecified),IRF Lucia reporter activity,RAW-Dual [2]; [4],0.91
Brc1c(Br)c(Br)c2[nH]nnc2c1Br,IRF Lucia reporter activity,RAW-Dual [2]; [4],0.902
Brc1c(Br)c(Br)c2[nH]nnc2c1Br (library stock concentration (final ~1000-fold dilution): 10 mM),IRF Lucia reporter activity,RAW-Dual [1]; [3],0.812
same,IRF Lucia reporter activity,RAW-Dual [1]; agonist: LPS (TLR4) 0.1 ug/mL,0.755
Cc1cc(-c2ncc(CC(=O)Nc3ccc(-c4cnccn4)cn3)cc2C)ccn1 (library stock concentration (final ~1000-fold dilution): 10 mM),IRF Lucia reporter activity,RAW-Dual [1]; [3],0.983
same,IRF Lucia reporter activity,RAW-Dual [1]; agonist: LPS (TLR4) 0.1 ug/mL,1.01
Cc1cc(-c2ncc(CC(=O)Nc3ccc(-c4cnccn4)cn3)cc2C)ccn1,IRF Lucia reporter activity,RAW-Dual [2]; [4],0.884
CN1CCC(NC(=O)c2cc(-c3c(O)cc(O)cc3Oc3ccc([N+](=O)[O-])cc3)on2)CC1,IRF Lucia reporter activity,RAW-Dual [2]; [4],1.04
CN1CCC(NC(=O)c2cc(-c3c(O)cc(O)cc3Oc3ccc([N+](=O)[O-])cc3)on2)CC1 (library stock concentration (final ~1000-fold dilution): 10 mM),IRF Lucia reporter activity,RAW-Dual [1]; [3],0.883
same,IRF Lucia reporter activity,RAW-Dual [1]; agonist: LPS (TLR4) 0.1 ug/mL,0.22
COc1cc2ncnc(Oc3ccc(CC(=O)Nc4cnn(C(C)C)c4)cc3)c2cc1OC (library stock concentration (final ~1000-fold dilution): 10 mM),IRF Lucia reporter activity,RAW-Dual [1]; [3],0.758
same,IRF Lucia reporter activity,RAW-Dual [1]; agonist: LPS (TLR4) 0.1 ug/mL,0.474
COc1cc2ncnc(Oc3ccc(CC(=O)Nc4cnn(C(C)C)c4)cc3)c2cc1OC,IRF Lucia reporter activity,RAW-Dual [2]; [4],0.67
C=CCCC(=O)O,IRF Lucia reporter activity,RAW-Dual [2]; [4],1.05
C=CCCC(=O)O (library stock concentration (final ~1000-fold dilution): 10 mM),IRF Lucia reporter activity,RAW-Dual [1]; [3],0.708
same,IRF Lucia reporter activity,RAW-Dual [1]; agonist: LPS (TLR4) 0.1 ug/mL,0.883
CC(C)(C)/[N+]([O-])=C/c1ccc(S(=O)(=O)O)cc1S(=O)(=O)O (library stock concentration (final ~1000-fold dilution): 10 mM),IRF Lucia reporter activity,RAW-Dual [1]; [3],0.879
same,IRF Lucia reporter activity,RAW-Dual [1]; agonist: LPS (TLR4) 0.1 ug/mL,1.34
COC(=O)NC(C(=O)N1CCCC1c1ncc(-c2ccc3c(c2)OC(c2ccccc2)n2c-3cc3cc(-c4cnc(C5CCCN5C(=O)C(NC(=O)OC)C(C)C)[nH]4)ccc32)[nH]1)C(C)C (stereo unspecified) (library stock concentration (final ~1000-fold dilution): 10 mM),IRF Lucia reporter activity,RAW-Dual [1]; [3],1.07
same,IRF Lucia reporter activity,RAW-Dual [1]; agonist: LPS (TLR4) 0.1 ug/mL,1.16
COC(=O)NC(C(=O)N1CCCC1c1ncc(-c2ccc3c(c2)OC(c2ccccc2)n2c-3cc3cc(-c4cnc(C5CCCN5C(=O)C(NC(=O)OC)C(C)C)[nH]4)ccc32)[nH]1)C(C)C (stereo unspecified),IRF Lucia reporter activity,RAW-Dual [2]; [4],1.01
COc1ncc(-c2ccc3nccc(-c4ccnnc4)c3c2)cc1NS(=O)(=O)c1ccc(F)cc1F,IRF Lucia reporter activity,RAW-Dual [2]; [4],1.11
COc1ncc(-c2ccc3nccc(-c4ccnnc4)c3c2)cc1NS(=O)(=O)c1ccc(F)cc1F (library stock concentration (final ~1000-fold dilution): 10 mM),IRF Lucia reporter activity,RAW-Dual [1]; [3],1.09
same,IRF Lucia reporter activity,RAW-Dual [1]; agonist: LPS (TLR4) 0.1 ug/mL,3.52
CNCCC(Oc1ccccc1C)c1ccccc1.Cl (stereo unspecified) (library stock concentration (final ~1000-fold dilution): 10 mM),IRF Lucia reporter activity,RAW-Dual [1]; [3],0.969
same,IRF Lucia reporter activity,RAW-Dual [1]; agonist: LPS (TLR4) 0.1 ug/mL,1.09
CNCCC(Oc1ccccc1C)c1ccccc1.Cl (stereo unspecified),IRF Lucia reporter activity,RAW-Dual [2]; [4],1.06
CN1CCCN=C1/C=C/c1cccc(O)c1.O=C(O)c1cc2ccccc2c(Cc2c(O)c(C(=O)O)cc3ccccc23)c1O,IRF Lucia reporter activity,RAW-Dual [2]; [4],0.491
CN1CCCN=C1/C=C/c1cccc(O)c1.O=C(O)c1cc2ccccc2c(Cc2c(O)c(C(=O)O)cc3ccccc23)c1O (library stock concentration (final ~1000-fold dilution): 10 mM),IRF Lucia reporter activity,RAW-Dual [1]; [3],0.401
same,IRF Lucia reporter activity,RAW-Dual [1]; agonist: LPS (TLR4) 0.1 ug/mL,0.421
CCCCC(=O)N(Cc1ccc(-c2ccccc2-c2nn[nH]n2)cc1)C(C(=O)O)C(C)C.CCOC(=O)C(C)CC(Cc1ccc(-c2ccccc2)cc1)NC(=O)CCC(=O)O (stereo unspecified) (library stock concentration (final ~1000-fold dilution): 10 mM),IRF Lucia reporter activity,RAW-Dual [1]; [3],0.572
same,IRF Lucia reporter activity,RAW-Dual [1]; agonist: LPS (TLR4) 0.1 ug/mL,0.731
C=C(C)C1CCC2(C)CCC3(C)C(CCC4C5(C)CCC(O)C(C)(C)C5CCC43C)C12 (stereo unspecified) (library stock concentration (final ~1000-fold dilution): 2 mM),IRF Lucia reporter activity,RAW-Dual [1]; [3],1
same,IRF Lucia reporter activity,RAW-Dual [1]; agonist: LPS (TLR4) 0.1 ug/mL,0.988
C=C(C)C1CCC2(C)CCC3(C)C(CCC4C5(C)CCC(O)C(C)(C)C5CCC43C)C12 (stereo unspecified),IRF Lucia reporter activity,RAW-Dual [2]; library stock concentration (final ~1000-fold dilution): 2 mM,1.2
